# Measurements reported in the BET-seq Pho4 binding data (Le et al. 2018).
# The other results are listed elsewhere or left out. Values were computed here from the reads of four pooled replicates and scatter widely.
# Molecular target: T1, Pho4 (S. cerevisiae) (UniProt P07270)
# T1 sequence: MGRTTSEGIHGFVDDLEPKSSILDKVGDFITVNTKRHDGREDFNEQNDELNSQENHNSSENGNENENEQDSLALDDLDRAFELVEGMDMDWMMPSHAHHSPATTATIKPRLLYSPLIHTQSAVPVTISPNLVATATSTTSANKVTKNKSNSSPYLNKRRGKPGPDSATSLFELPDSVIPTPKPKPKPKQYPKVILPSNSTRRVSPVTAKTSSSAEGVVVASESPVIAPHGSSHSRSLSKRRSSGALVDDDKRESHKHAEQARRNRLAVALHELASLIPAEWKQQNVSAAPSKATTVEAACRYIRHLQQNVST
# Experiment: relative binding free energy (BET-seq); higher = weaker binding
# Settings: reference: library average
row,Sequence,relative binding free energy
1,ACTTGCACGTGGGGAT,-0.23 kcal/mol
2,TGTTACACGTGATGGG,0.29 kcal/mol
3,GTGTACACGTGAGAGA,0.14 kcal/mol
4,TAGTTCACGTGTGTTG,0.4 kcal/mol
5,GGGCGCACGTGCTTGG,-0.13 kcal/mol
6,TGATGCACGTGGGGTA,-0.04 kcal/mol
7,TCGGACACGTGGTTGA,-0.03 kcal/mol
8,TGTTTCACGTGTGCGG,0.3 kcal/mol
9,CAGTTCACGTGTTATG,0.28 kcal/mol
10,TGGGTCACGTGAGGAA,0.35 kcal/mol
11,TAGGGCACGTGACGGC,0.05 kcal/mol
12,GTCGTCACGTGTAGTG,0.15 kcal/mol
13,GGGGACACGTGAGGCA,0.11 kcal/mol
14,ATTTGCACGTGCCGGG,-0.08 kcal/mol
15,GGAAGCACGTGTTGAT,-0.07 kcal/mol
16,TGTCGCACGTGGGGTC,-0.26 kcal/mol
17,TTAAGCACGTGAGATG,0.26 kcal/mol
18,TTTTTCACGTGAACTT,0.39 kcal/mol
19,GATCACACGTGGTGGT,0.16 kcal/mol
20,TAATGCACGTGTATTG,-0.06 kcal/mol
21,TTTGGCACGTGCTTGT,-0.16 kcal/mol
22,CTAGTCACGTGTGTAG,0.03 kcal/mol
23,TAAGTCACGTGTGTAA,0.12 kcal/mol
24,ATAATCACGTGGTCTT,-0.01 kcal/mol
25,GGGGACACGTGTTTGT,0.18 kcal/mol
26,GTCGTCACGTGGATTA,0.22 kcal/mol

row,Sequence,relative binding free energy
1,GGTTGCACGTGGCGTC,-0.14 kcal/mol
2,AATGACACGTGGTATT,-0.19 kcal/mol
3,AGTGGCACGTGCTGTG,-0.23 kcal/mol
4,ATTTTCACGTGACTTA,0.17 kcal/mol
5,TGTGTCACGTGATGAC,0.23 kcal/mol
6,TTGCTCACGTGGTTTC,0.28 kcal/mol
7,TTTTGCACGTGGAGGC,-0.08 kcal/mol
8,AATTTCACGTGGTGCG,0.16 kcal/mol
9,TGTTTCACGTGGTCAT,0.21 kcal/mol
10,TCAGGCACGTGGTGAT,-0.02 kcal/mol
11,ATAGGCACGTGTGCTT,-0.09 kcal/mol
12,TTTGTCACGTGCAGCG,0.2 kcal/mol
13,TTTTGCACGTGATAGA,0.1 kcal/mol
14,ATTGGCACGTGATACT,0.18 kcal/mol
15,GTTTCCACGTGTTATT,0.16 kcal/mol
16,CGGGGCACGTGGTGAT,-0.16 kcal/mol
17,TCTGTCACGTGACAGT,0.31 kcal/mol
18,GGGATCACGTGGGCAG,0.07 kcal/mol
19,CTATTCACGTGGGTAG,0.03 kcal/mol
20,TGGTTCACGTGCGGCG,0.21 kcal/mol
21,GGGTTCACGTGCAGAT,0.26 kcal/mol
22,GGCCTCACGTGGAGGT,0.15 kcal/mol
23,TTACGCACGTGATTAT,0.19 kcal/mol
24,ATTTTCACGTGACGTG,0.42 kcal/mol
25,ATGTTCACGTGTATCA,0.23 kcal/mol
26,ATCTGCACGTGTGCGG,0 kcal/mol

row,Sequence,relative binding free energy
1,GGGCACACGTGGCGAG,0.06 kcal/mol
2,TATGACACGTGTAAAG,0.17 kcal/mol
3,TTGGCCACGTGAGTTG,0.24 kcal/mol
4,TTGTTCACGTGGTTAA,0.18 kcal/mol
5,CAGGGCACGTGTGTCT,-0.13 kcal/mol
6,CTTGGCACGTGGTTGA,-0.2 kcal/mol
7,CATTGCACGTGGGGGC,-0.04 kcal/mol
8,TTAAGCACGTGTGTTA,0.02 kcal/mol
9,AGGAACACGTGTGTGG,0.1 kcal/mol
10,CTGCGCACGTGGTGAT,-0.15 kcal/mol
11,TACGACACGTGGAGTG,-0.09 kcal/mol
12,ATGGCCACGTGGGTGA,-0.22 kcal/mol
13,ATGAACACGTGGTGGT,-0.03 kcal/mol
14,ATGGTCACGTGGAGTT,0.2 kcal/mol
15,CTAGGCACGTGTTTGG,-0.13 kcal/mol
16,TGATGCACGTGGATGA,-0.05 kcal/mol
17,GATAACACGTGATGTT,0.17 kcal/mol
18,TGTGTCACGTGGATCT,0.03 kcal/mol
19,GGTTGCACGTGCTGAT,0.07 kcal/mol
20,AATAGCACGTGGCTTT,-0.03 kcal/mol
21,AATGTCACGTGTGTTA,0.12 kcal/mol
22,AGGGCCACGTGTCAGG,-0.16 kcal/mol
23,TCAGTCACGTGGTTGG,-0.01 kcal/mol
24,AGGGTCACGTGGTAAG,0.12 kcal/mol
25,TTGTTCACGTGAGAGT,0.4 kcal/mol
26,ATTGGCACGTGGTTCG,-0.23 kcal/mol

row,Sequence,relative binding free energy
1,TATCTCACGTGCTGGT,0.13 kcal/mol
2,CTTTGCACGTGATGTG,0.15 kcal/mol
3,AGATTCACGTGTATGT,0.11 kcal/mol
4,CAATTCACGTGGGTAA,0.23 kcal/mol
5,AGGGCCACGTGGTATG,-0.16 kcal/mol
6,GGAGGCACGTGGCGGT,-0.2 kcal/mol
7,GTATTCACGTGTACGG,0.18 kcal/mol
8,GATGTCACGTGAGGGT,0.39 kcal/mol
9,AAGCGCACGTGTTTTG,-0.15 kcal/mol
10,TCAGGCACGTGTGAGT,0.03 kcal/mol
11,CGGTACACGTGGGCGG,-0.09 kcal/mol
12,CAGATCACGTGGGTCG,0.16 kcal/mol
13,AAGAGCACGTGGGTGA,-0.13 kcal/mol
14,TGGGTCACGTGTGGTC,0.16 kcal/mol
15,TCGTACACGTGGGGCG,0.11 kcal/mol
16,TTGGTCACGTGGGACG,0.07 kcal/mol
17,TGGGACACGTGTCTAG,-0.09 kcal/mol
18,TTGTCCACGTGTTAAT,0.04 kcal/mol
19,AGAGGCACGTGTTCGA,0.05 kcal/mol
20,AGATTCACGTGGTTAG,0.11 kcal/mol
21,AGTATCACGTGGAGTC,0.2 kcal/mol
22,ATGGTCACGTGATGTG,0.35 kcal/mol
23,GTGGGCACGTGCCGCG,-0.12 kcal/mol
24,CTTGGCACGTGTTGGA,0 kcal/mol
25,AGTGTCACGTGGACTA,-0.04 kcal/mol
26,GCGGGCACGTGATGGG,0.11 kcal/mol

row,Sequence,relative binding free energy
1,GGATTCACGTGTGCTT,0.34 kcal/mol
2,CGTGTCACGTGAAGGT,0.23 kcal/mol
3,TAGGTCACGTGATAGA,0.16 kcal/mol
4,TCTTGCACGTGTTAGT,0.05 kcal/mol
5,AGGGGCACGTGATTCG,-0.1 kcal/mol
6,GTAGCCACGTGTGAGT,-0.04 kcal/mol
7,ATAAACACGTGGTGGT,-0.13 kcal/mol
8,CGAGTCACGTGTGATT,0.12 kcal/mol
9,ATGATCACGTGATGGC,0.19 kcal/mol
10,TCATACACGTGGGTTT,0.05 kcal/mol
11,TAGTGCACGTGGGGAC,-0.1 kcal/mol
12,TGGGTCACGTGACCGG,0.24 kcal/mol
13,AGGGCCACGTGGGTAT,-0.28 kcal/mol
14,CCGGTCACGTGGTATG,-0.04 kcal/mol
15,TACAGCACGTGGGGTT,-0.12 kcal/mol
16,GTAGACACGTGGGAGT,-0.07 kcal/mol
17,GAGTGCACGTGATAGG,0.23 kcal/mol
18,TTTGGCACGTGCAGGC,-0.08 kcal/mol
19,AGCTACACGTGGTATG,-0.04 kcal/mol
20,GTGGGCACGTGTGGAA,0.02 kcal/mol
21,GCGTGCACGTGGGGTT,-0.13 kcal/mol
22,GTTAACACGTGGTCTG,-0.12 kcal/mol
23,ACGTGCACGTGGTTGG,-0.17 kcal/mol
24,CGTGTCACGTGGGTGC,-0.09 kcal/mol
25,TCGTCCACGTGGGTTT,-0.1 kcal/mol
26,GGTTACACGTGCGCGT,-0.01 kcal/mol

row,Sequence,relative binding free energy
1,CGGTACACGTGGTGTC,0.04 kcal/mol
2,TAGCTCACGTGTTTAG,0.27 kcal/mol
3,GTGGTCACGTGGTCTT,0.08 kcal/mol
4,GGAGCCACGTGTGAGT,0.1 kcal/mol
5,GTATCCACGTGGTGGT,0.08 kcal/mol
6,ATATGCACGTGATCTG,0.04 kcal/mol
7,GGTGGCACGTGGCTAT,-0.02 kcal/mol
8,TGTCACACGTGTTAGG,0.17 kcal/mol
9,CATTACACGTGGGGGA,0.08 kcal/mol
10,TATGGCACGTGGGGAC,-0.22 kcal/mol
11,GTCGTCACGTGGGTCG,-0.05 kcal/mol
12,CAAGGCACGTGTGTTG,-0.08 kcal/mol
13,GGGTACACGTGGGGAA,0.13 kcal/mol
14,TTGCGCACGTGATGCG,0 kcal/mol
15,CAGCGCACGTGGTTGG,-0.19 kcal/mol
16,GATGGCACGTGAAGTA,0.21 kcal/mol
17,GGCCACACGTGTGGGA,0.29 kcal/mol
18,AATTCCACGTGTTGGG,0.1 kcal/mol
19,GGATACACGTGGAATG,0.11 kcal/mol
20,GTGAGCACGTGAGTTT,0.29 kcal/mol
21,TAAGTCACGTGCTAGT,0.06 kcal/mol
22,TAGTTCACGTGTGATG,0.44 kcal/mol
23,TGGTACACGTGGTCGG,-0.01 kcal/mol
24,CGGGGCACGTGAGTAA,0.06 kcal/mol
25,AAAGTCACGTGGGTGA,0.12 kcal/mol
26,TGTGACACGTGGAGTC,0.03 kcal/mol

row,Sequence,relative binding free energy
1,GGTTGCACGTGTTTAA,0.14 kcal/mol
2,GGGATCACGTGTGGAG,0.16 kcal/mol
3,CTTGGCACGTGGTTGC,-0.1 kcal/mol
4,AGTATCACGTGTATGT,0.11 kcal/mol
5,TGTTTCACGTGATACT,0.45 kcal/mol
6,CTTTTCACGTGGTGAA,0.19 kcal/mol
7,AGGTCCACGTGACGGT,0.11 kcal/mol
8,ATAATCACGTGTGGTT,0.07 kcal/mol
9,GAGCGCACGTGCGGGA,0 kcal/mol
10,TTGATCACGTGGGTTA,-0.08 kcal/mol
11,ATATTCACGTGTATTA,0.13 kcal/mol
12,GCGGTCACGTGGTACG,0.07 kcal/mol
13,TCCGGCACGTGTGTTG,-0.03 kcal/mol
14,GTTTGCACGTGCAGGC,0.08 kcal/mol
15,GTAGACACGTGTTCGG,0.03 kcal/mol
16,TAGTCCACGTGTAGTG,0.01 kcal/mol
17,TGTATCACGTGTATAT,0.08 kcal/mol
18,ACGGGCACGTGGTGGA,-0.24 kcal/mol
19,TGGTTCACGTGGAGAT,0.28 kcal/mol
20,ATTTCCACGTGAAGGT,0.2 kcal/mol
21,GGCTGCACGTGGGTGA,-0.2 kcal/mol
22,TGGTTCACGTGCAATA,0.24 kcal/mol
23,GTAACCACGTGTGGGA,0.03 kcal/mol
24,AAGTACACGTGAATTG,0.31 kcal/mol
25,TGTTCCACGTGTTTTG,0.05 kcal/mol
26,ATAATCACGTGTCAGG,0.21 kcal/mol

row,Sequence,relative binding free energy
1,TTGGTCACGTGCGTCG,-0.23 kcal/mol
2,GGGGGCACGTGAAATG,0.25 kcal/mol
3,GTATACACGTGGCGGG,0.01 kcal/mol
4,GGTTACACGTGGGGTC,0.01 kcal/mol
5,TTATTCACGTGTGGTA,0.26 kcal/mol
6,CGTGGCACGTGTTGAA,0.05 kcal/mol
7,TAGCGCACGTGCTTGG,-0.15 kcal/mol
8,CTTCACACGTGGTTTT,0.24 kcal/mol
9,TTAGACACGTGTTGCT,0.01 kcal/mol
10,TTTAACACGTGTGGCA,-0.04 kcal/mol
11,ATAAGCACGTGTTTCT,-0.08 kcal/mol
12,TTTCGCACGTGTGTTA,-0.13 kcal/mol
13,AGTGGCACGTGCTTTA,-0.21 kcal/mol
14,GGTTGCACGTGTTAGA,0.13 kcal/mol
15,TGAGTCACGTGTTTGT,0.12 kcal/mol
16,TTTCTCACGTGCTGTA,0.23 kcal/mol
17,ATCGACACGTGGAGGT,-0.01 kcal/mol
18,GTACACACGTGGTGGT,0.05 kcal/mol
19,AAGCTCACGTGTTGGG,0.27 kcal/mol
20,TCGAGCACGTGGTAGG,-0.24 kcal/mol
21,AAGGTCACGTGGTATT,-0.04 kcal/mol
22,GGTAGCACGTGTGTGT,-0.03 kcal/mol
23,TGTTACACGTGACGGG,0.17 kcal/mol
24,TGATGCACGTGTTTTG,0.02 kcal/mol
25,CTAGGCACGTGGTTAT,-0.32 kcal/mol
26,GACTGCACGTGGTTGG,-0.01 kcal/mol

row,Sequence,relative binding free energy
1,TGGGACACGTGTTGTT,0.04 kcal/mol
2,GGGTTCACGTGTTGCA,0.28 kcal/mol
3,TTTTGCACGTGATGAA,0.09 kcal/mol
4,GTGATCACGTGGGAGA,0.02 kcal/mol
5,GTGGACACGTGTAGTC,0.09 kcal/mol
6,CTTTGCACGTGGCGCG,-0.05 kcal/mol
7,ATGCGCACGTGAGTGG,-0.04 kcal/mol
8,AAAATCACGTGGTATG,0 kcal/mol
9,TTTGTCACGTGCTCGT,-0.02 kcal/mol
10,GTTGGCACGTGTGTCC,-0.08 kcal/mol
11,AGGGTCACGTGGCTTA,-0.1 kcal/mol
12,AAGTGCACGTGGATTG,-0.13 kcal/mol
13,GGGATCACGTGGTGTG,0.12 kcal/mol
14,CTGGGCACGTGGAGGA,-0.02 kcal/mol
15,TGTGTCACGTGGGCTG,0 kcal/mol
16,GTTGGCACGTGGGAGC,-0.03 kcal/mol
17,AGCTACACGTGTTGTG,-0.08 kcal/mol
18,CCTGTCACGTGGCGGG,0.11 kcal/mol
19,ATTGTCACGTGGTCAG,0.06 kcal/mol
20,ATTATCACGTGTCTTA,0.1 kcal/mol
21,AGGGACACGTGAGGGG,0.19 kcal/mol
22,CGTGGCACGTGCATTG,-0.19 kcal/mol
